Source: ChEMBL document CHEMBL4888484, “Replenishing the malaria drug discovery pipeline: Screening and hit evaluation of the MMV Hit Generation Library 1 (HGL1) against asexual blood stage Plasmodium falciparum ,using a nano luciferase reporter read-out” (2022)
In all, about 150,000 compounds went through this assay and about 540 (0.36%) showed an effect of 50% or more. Some of the results follow.

tested on: Plasmodium falciparum; test: Primary screen in NF54 nanoGlo assay, in single point, at 2uM, 72h; a lower Z score goes with more inhibition; assay type: functional, Erythrocyte; settings: timepoint 72 hour

Structure (SMILES)	% Inhibition [%]	Z score
Cc1nn(C)c(-c2nc(CC(N)=O)n[nH]2)c1Cl	-4	0.49
CC(C)(C)/N=C1\[C@@H](N2CCCC2)C2(CCCCC2)C(=O)N1c1ccccc1	-35	4.11
Cc1ccc(C)c2sc(N(C)CC(=O)NC3CCN(Cc4ccccc4)CC3)nc12	-5	0.96
Cc1ccc(Cl)cc1NC(=O)Cn1nc2c(N3CCC[C@H](C)C3)nccn2c1=O	-10	1.26
CC(C)Oc1cc(CN(c2ccc3nnnn3n2)C2CC2)ccn1	-3	0.43
Cn1cc(-c2ccc(F)cc2)cc1C(=O)NCc1cccs1	7	-1.08
O=C(NCC1(C2(O)CCC2)CC1)[C@@H]1CCCc2[nH]nnc21	-3	0.59
COc1cc2c(cc1F)CN(Cc1nnc(C)s1)CC2	-9	1.46
CCc1nnsc1C(=O)N(Cc1ccc2c(c1)CCO2)C1CCCC1	-5	0.69
O=C(NCC1(Cc2ccc(F)cc2)CCCC1O)c1cnns1 (stereo not drawn)	0	-0.02
Cc1cccc(CN(Cc2ccccn2)C(=O)c2cnsn2)c1	-1	0.19
CCN(CC)c1ccc(CNC(=O)c2cccnc2O)cc1F	-2	0.26
O=C(c1cccc(CO)c1)N1CCC[C@H](c2ccncc2)CC1	-5	0.95
N#Cc1ccc(C(=O)N2CCC3(CCC(=O)N(Cc4ccccn4)C3)CC2)cc1	-2	0.37
COc1cc2c(cc1OC)C(NC(=O)[C@H](C)N1Cc3ccccc3C1=O)CC2 (stereo partly drawn)	6	-0.75
CC1CN(C(=O)c2cn(Cc3cccs3)nn2)CC1N(C)C (stereo not drawn)	-14	1.4
Cc1ccc(NS(=O)(=O)c2ccc3c(c2)sc(=O)n3CCC(=O)N2CCCCC2)c(Cl)c1	9	-1
CCCn1nc2nc(Nc3ccc(F)c(C)c3)cc(C)n2c1=O	-15	1.65
Cn1c(-c2ccc(Br)cc2)cn2cc(-c3cccc(Cl)c3)nc12	-1	0.08
COCCNC(=O)C(=O)NCCc1ccc(OC)cc1	-13	2.07
COc1cccc(CC(=O)Nc2ccc3c(c2)CCN(C)C3=O)c1	0	0.07
Cc1nc(CN(CC(=O)N2CCOC3CCCCC32)C(C)c2ccc(Cl)cc2)oc1C (stereo not drawn)	-1	0.1
CCn1nc(C)nc1NC(=O)N[C@H]1CCN(CC(F)F)C1	6	-0.73
CCCCOCC(=O)Nc1cc(F)ccc1Br	-7	0.71
CCOC(=O)[C@H]1CCCN(C(=O)c2cc(NC(C)=O)c3c(c2)ncn3CCc2ccccn2)C1	10	-1.27
Cc1ccc(C(=O)N2CCC3(CCC(=O)N(Cc4ccccc4)CC3)CC2)cc1	4	-0.51
CCCn1nccc1-c1cc(N2CCCC2)nc(N)n1	-13	2.22

Structure (SMILES)	% Inhibition [%]	Z score
CC(C)(C)c1ccc(NC2CCN(CCN3CCOCC3)CC2)cc1	-19	1.93
O=C(c1ccc(C2CC2)nc1O)N1CC2(CC2)C1	-3	0.28
CC(C)N1C(=O)CO[C@H](c2ccc(NC(=O)C3CCOCC3)cc2)[C@H]1CO	2	-0.28
Cn1ccnc(N2CCOc3ccc(F)cc3C2)c1=O	-15	1.98
Cc1cnc(C2CCN(C(=O)CCCc3ccccc3)CC2)n1CCO	-5	0.77
C[C@H]1CN(C(=O)c2cccc3ncn(C)c23)C[C@@H]1CS(N)(=O)=O	-2	0.36
COc1ccc(CN(C(=O)OC(C)(C)C)C2CCC(C(=O)N3CCO[C@@H](COc4ccc(C)cc4)C3)CC2)cc1C (stereo partly drawn)	-1	0.13
Cc1nnc(CN2CCC[C@H]2c2ncn[nH]2)s1	-8	1.61
C[C@@H](N)C(=O)N1CCc2c(F)cc(F)cc21	-15	2.35
Cc1noc(C)c1NS(=O)(=O)c1ccc2c(c1)CC(=O)N2	1	-0.1
CC1(C)CN(C(=O)c2ccc(N3CC(=O)NC3=O)cc2)C[C@@H]1c1ccccc1	-15	2.37
Cc1cc(C)c(CC(=O)N2CCCS(=O)(=O)C[C@H]2C2CC2)s1	-5	0.92
Cc1ccc(-c2n[nH]cc2CN2CCC[C@@](F)(C(=O)N3CCOCC3)C2)cc1	-30	2.67
Cc1cccc(C)c1OC[C@H](NCc1nnn(C)n1)c1ccccc1	9	-1.78
COc1ccc(S(=O)(=O)N[C@H]2CC[C@H](Oc3ncc(F)cn3)CC2)cc1	-8	1.4
CC[C@@]1(C)Cc2ccccc2-c2[nH]c(=O)n(Cc3ccco3)c(=O)c21	-9	1.02
CC(C)c1noc(CN2CCC(NC(=O)c3cnn(C)c3)CC2)n1	-9	1.54
C=CCCC(=O)NC[C@H](O)c1cc(C)oc1C	-12	1.94
COc1cccc(C(=O)NCc2ccc3c(c2)CCN3C(C)=O)c1	-2	0.45
Cc1ccsc1C(=O)N1CC[C@@H](NC(=O)c2cccnc2)[C@@H](CO)C1	-7	0.88
CC1CN(S(=O)(=O)N(C)Cc2ccsc2)CC(C)O1 (stereo not drawn)	-7	1.03
c1nc(OC2CCC2)c2sccc2n1	-3	0.42
CC[C@@H](NC(=O)c1cnc(OCC2CC2)cn1)C(N)=O	-10	1.13
O=C(CCC1CCCC1)NCCCNC(=O)CCC1CCCC1	-2	0.24
Cc1cc(Cl)ccc1NC(=O)N1C[C@@H](F)C[C@H]1C(=O)N1CCc2ccccc2C1	-11	1.44
Cc1ccc(-c2cc(C)nc(N3CCOCC3)n2)c(-n2nc(C)cc2C)c1	12	-2.27
Cc1cc(-c2ccccc2C(N)=O)c(C)c2sc(N)nc12	-9	1.48
